Source: PubChem BioAssay AID1508623 (National Center for Advancing Translational Sciences (NCATS), 2021)
About 450 (0.94%) of roughly 48,000 compounds were called active. Another 19% or so got no clear call; they are omitted. Calls come from the whole dose curve; as a rule, active = well fitted inhibition curve with a large enough effect; inconclusive = small, poorly fitted or top-dose-only effect; inactive = no such curve, though single readings can be large or run the other way. Some of the results follow.

Assay: Primary qHTS for Identification of Small Molecule Inhibitors of Huntingtin Promoter Activity; note: nearly all actives have a fitted effect of over 50% in size
Details: HEK293 HTT promoter firefly luciferase reporter (activity 0% = vehicle and -100% = no light), 24 h; series mostly up to 57.5 µM; activity change, negative = inhibition: at the top concentration
Outline: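 HEK293 luciferase promoter-reporter cells (2,500/well) plated 24 h, then compounds added at up to 57.5 uM final for 24 h at 37 °C. Firefly luminescence by Dual-Glo, normalized to vehicle (0%) and zero RLU (-100%).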

Activity change, negative = inhibition, inactive:
CCc1ccccc1N(C)C(=O)c1ccc2c(=O)n3c(nc2c1)CCCCC3 -15.9%
COc1ccc(S(=O)(=O)NCC(c2ccc(N(C)C)cc2)N2CCc3ccccc32)cc1OC (configuration not stated) -4.92%
Cc1cccc(OCC(=O)Nc2cccc3cccnc23)c1C 1.1%
COc1ccc(N2CCN(C(=O)CCc3c(C)nc4cc(-c5ccc(OC)cc5OC)nn4c3C)CC2)cc1 -22.7%
CCOC(=O)c1c(NC(=O)c2ccccc2OCC)sc2c1CCC(CC)C2 (configuration not stated) 0.175%
Cc1nnc(N2C(=O)c3oc4ccccc4c(=O)c3C2c2ccc(Cl)cc2)s1 (configuration not stated) -16.3%
Cc1ccc2c(c1)C(=O)OC(C(=O)Nc1ncc(Cc3ccc(Cl)cc3)s1)C2 (configuration not stated) 8.83%
O=S(=O)(O)c1ccc2cc(N=Nc3cc(S(=O)(=O)O)c4cccnc4c3O)ccc2c1 -9.52%
Cc1cccc(C)c1-n1ncc(C(=O)NC2CCCC2)c1C1CCN(C(=O)OC(C)(C)C)CC1 -11%
CCOc1ccc(NC(=O)NCc2cccn2Cc2ccccc2)cc1 -7.71%
CC(=O)O[C@]1(C(C)=O)CC[C@H]2[C@@H]3C[C@H](C)C4=CC(=O)CC[C@]4(C)[C@H]3CC[C@@]21C -7.22%
O=C(COc1ccc(Cl)cc1Cl)Nc1cccc2cccnc12 6.41%
Cc1ccc2oc(-c3ccc(C)c(NC(=O)/C=C/c4ccc(Cl)cc4)c3)nc2c1 11.2%
COc1ccc(Nc2c(-c3ccc(C)o3)nc3cc(C)ccn23)cc1 45.8%
Cc1ccc2[nH]c3c(=O)n(CC(=O)N(CCN(C)C)Cc4ccccc4)ncc3c2c1 -5.31%
Clc1cccc(C(c2ccc3nc[nH]c3c2)n2ccnc2)c1 (configuration not stated) -6.09%
CC(C)(C)c1nc2c3cc[nH]c(=O)c3c3cc(F)ccc3c2[nH]1 -3.07%
CCOC(=O)CNC(=O)N1[C@H](c2cccs2)[C@@H](C)C(=O)[C@@H](C)[C@@H]1c1cccs1 -12.5%
CCOc1ccc(N2CC(NC(=O)C3CCCCC3)CC2=O)cc1 (configuration not stated) -2.11%
CC(C)NCC(O)c1ccc2ccccc2c1 (configuration not stated) 2.01%
COc1cc(NC(=O)c2nc3nc(C)cc(C(F)F)n3n2)c(OC)cc1Cl -5.54%
Cc1ccc(CNC(=O)c2ccc(CN3CC(=O)N4CCCCC4C3=O)cc2)cc1 (configuration not stated) -19.2%
CCc1nnc(NC(=O)c2nc(SCc3ccccc3F)ncc2Cl)s1 -21%
COc1ccc(S(=O)(=O)N2CCN(c3cccc(C)c3C)CC2)c2ccccc12 -2.55%
COc1ccc2c(c1)c(=O)c(C(=O)c1ccc(F)cc1)cn2CC(=O)Nc1ccc2c(c1)OCO2 -9.02%
Cc1ccc(NC(=O)C2CCN(c3nnc(C)c4c(C)n(-c5ccccc5)nc34)CC2)c(Cl)c1 -15.1%
CC(C)CCNC(=O)Cn1c(-c2cccs2)cc2cc(F)ccc21 -21.9%
